From the RNAGym collection of RNA variant scans (doi:10.1101/gad.245936.114)
Variants at the floor of the assay are shown more often than the library holds them.

B1: tRNA (parent)
chain: CUCUCGGUAGCCAAGUUGGUUUAAGGCGCAAGACUUUAAUUUAUCACUACGAAAUCUUGAGAUCGGGCGUUCGACUCGCCCCCGGGAGAUUUUUUCCUCGAGCAA

Variants of: B1
Test: nonsense suppression (GFP-seq) (ratio to wild type); higher = more function; SUP4oc tRNA, yeast GFP reporter sort-seq
Summary of the method: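 Raffinose/galactose medium with 80 mg/L adenine was used to grow yeast carrying genome-integrated tRNA variants (~3% random-mutation library), RFP, and a galactose-driven GFP ochre reporter. Cells went into GFP/RFP bins, which were Illumina-sequenced, and variants with ≥100 reads and ≥30 cells were scored. Nonsense suppression (GFPSEQ) is the per-bin median GFP/RFP weighted by estimated cell share and expressed relative to the unmutated parent tRNA.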

Question: For CUCUGGGUAGCCAAGUCGGUUUAAGGCGCAAGACUUUAAUUUAUCACUACGAAAUCUUGAGAUCGGGUGUUCGACUCGCCCCCGGGAGAUUUUUUCCUCGAGCAA [C5G U17C C68U], which nonsense suppression is on record?
Answer: ≤ 0.026

Question: For CUCUGGGUAGCCAAGUGGGUUUAAGGCGCAAGAGUUUAAUUUAUCACUACGAAAUCUUGAGAUCGGGCAUUCGACUCGCCCCCGGGAGAUUUUUUCCUCGAGCAA [C5G U17G C34G G69A], which nonsense suppression is on record?
Answer: ≤ 0.026

Question: Which nonsense suppression does the source give for CUCUGGGUAGCCAAGUUGGUCUUAGGCGCAAGACUUUAAUUUAUCACUACGAAAUCUUGAGAUCGGGCGUUCGACUCGCCACCGGGAGAUUUUUUCCUCGAGCAA [C5G U21C A23U C81A] here?
Answer: ≤ 0.026

Question: With CUCUGGGUAGCCAAGUUGGUUCAAGGCGAAAGACUUUAAUUUAUCACUACGAAAUCUUGAGAUCGGGCGUUCGACUCGCCCCCGGGAGAUUUUUUCCUCGAGCAA [C5G U22C C29A] as the variant, how does the nonsense suppression read?
Answer: ≤ 0.026

Question: Which nonsense suppression does the source give for CUCUGGGUAGCCAAGUUGGUUUAAGGCGCAAGACAUUAAUUUAUCACUACGAAAUAUUGAGAUCGGGCGUUCGACUCGCCCCCGGGAGAUUUUUUCCUCGAGCAA [C5G U35A C56A] here?
Answer: ≤ 0.026

Question: Which nonsense suppression does the source give for CUCUGGGUAGCCAAGUUGGUUUAAGGCGCAAGACAUUAAUUUAUCACUACGAAAUCUUGAGAUAGGGCGUUCGACUCGCCCCCGGGAGAUUUUUUCCUCGAGCAA [C5G U35A C64A] here?
Answer: ≤ 0.026

Question: Which nonsense suppression does the source give for CUCUGGGUAGCCAAGUUGGUUUAAGGCGCAAGACGUUAAUUUAUCACUACGAAAUCUUGAGAUCGGGCGUCCGACUCGCCCCCGGGAGAUUUUUUCCUCGAGCAA [C5G U35G U71C] here?
Answer: ≤ 0.026

Question: Which nonsense suppression does the source give for CUCUGGGUAGCCAAGUUGGUUUAAGGCGCAAGACUUUAAUUUAUCACUACGAAACCUUGAGAUCGGGCGUUCGACUCGCCCCCGGUAGAUUUUUUCCUCGAGCAA [C5G U55C G86U] here?
Answer: ≤ 0.026

Question: For CUCUGGGUAGCCAAGUUGGUUUAAGGCGCAAGACUUUAAUUUAUCACUACGAAAUCCUGAGAUCGGGCGAUCGACUCGCACCCGGGAGAUUUUUUCCUCGAGCAA [C5G U57C U70A C80A], which nonsense suppression is on record?
Answer: ≤ 0.026

Question: Which nonsense suppression does the source give for CUCUGGGUAGCCAAGUUGGUUUAAGGCGCAAGACUUUAAUUUAUCACUACGAAAUCUUGAGAACGGGCGUUCGACUCGCCCCCGGCAGAUUUUUUCCUCGAGCAA [C5G U63A G86C] here?
Answer: ≤ 0.026

Question: Which nonsense suppression does the source give for CUCUGGGUAGCCAAGUUGGUUUAAGGCGCAAGACUUUAAUUUAUCACUACGAAAUCUUGAGACCGGGCGUUCGACUCCACCCCGGGAGAUUUUUUCCUCGAGCAA [C5G U63C G78C C79A] here?
Answer: ≤ 0.026

Question: Which nonsense suppression does the source give for CUCUGGGUAGCCAAGUUGGUUUAAGGCGCAAGACUUUAAUUUAUCACUACGAAAUCUUGAGAGCGGGCGUUCGACUCGCCCCCGGGAGAUUUUUUCCUCGAGCAA [C5G U63G] here?
Answer: ≤ 0.026

Question: For CUCUGGGUAGCCAAGUUGGUUUAAGGCGCAAGACUUUAAUUUAUCACUACGAAAUCUUGAGAUCGGGCGAUCGACUCGCCCCCGGGAGAUUUUUUCCUCGAGCAA [C5G U70A], which nonsense suppression is on record?
Answer: ≤ 0.026

Question: Which nonsense suppression does the source give for CUCUGGGUAGCCAAGUUGGUUUAAGGCGCAAGACUUUAAUUUAUCACUACGAAAUCUUGAGAUCGGGCGAUCGACUAGCCCCCGGGAGAUUUUUUCCUCGAGCAA [C5G U70A C77A] here?
Answer: ≤ 0.026

Question: For CUCUGGGUAGCCAAGUUGGUUUAAGGCGCAAGACUUUAAUUUAUCACUACGAAAUCUUGAGAUCGGGCGUUCGACACGCCCCCGGGAGAUUUUUUCCUCGAGCAA [C5G U76A], which nonsense suppression is on record?
Answer: ≤ 0.026

Question: Which nonsense suppression does the source give for CUCUGGGUAGCCAAGUUGGUUUAAGGCGCAAGACUUUAAUUUAUCACUACGAAAUCUUGAGAUCGGGCGUUCGACCCGCCCCCGGGAGAUUUUUUCCUCGAGCAA [C5G U76C] here?
Answer: ≤ 0.026

Question: With CUCUGGGUAGCCAAGUUGGUUUAAGGCGCAAGACUUUAAUUUAUCACUACGAAAUCUUGAGAUCGGGCGUUCGACGCGCCCCCGGGAGUUUUUUUCCUCGAGCAA [C5G U76G A89U] as the variant, how does the nonsense suppression read?
Answer: ≤ 0.026

Question: For CUCUUGGUGGCCAAGUUGGUUUAAGGCGCAAGACUUUAAUUUAUCACUACGAAAUCUUGAGAUAGGGCGUUCGACUCGCCCCCGGGAGAUUUUUUCCUCGAGCAA [C5U A9G C64A], which nonsense suppression is on record?
Answer: ≤ 0.026

Question: Which nonsense suppression does the source give for CUCUUGGUUGCCAAGUUGGUUUAAGGCGCAAGACUUUAAUUUAUCACUACGAAAUCUUGAGAUCGGGCGUUCGACUCGCCCCCGGGAGAUUUUUUCCUCGAGCAA [C5U A9U] here?
Answer: ≤ 0.026

Question: For CUCUUGGUUGCCAAGUUGGUUUAAGGCGCACGACUUUAAUUUAUCACUACGAAAUCUUGAGAUUAGGCGUUCGACUCGCCCCCGGGAGAUUUUUUCCUCGAGCAA [C5U A9U A31C C64U G65A], which nonsense suppression is on record?
Answer: ≤ 0.026

Question: For CUCUUGGUUGCCAAGUUGGUUUAAGGCGCACGACUUUAAUUUAUCACUACGAAAUCUUGAGAUCGGGCGUUCAACUCGCCCCCGGGAGAUUUUUUCCUCGAGCAA [C5U A9U A31C G73A], which nonsense suppression is on record?
Answer: ≤ 0.026

Question: With CUCUUGGUAGCCCAGUUGGUUUAAGGCGCAAGACUUUAAUUUAUCACUACGAAAUCUUGAGAUCGGGCGUUCGACUCGCCCCCGGGAGAUUUUUUCCUCGAGCAA [C5U A13C] as the variant, how does the nonsense suppression read?
Answer: 0.0679

Question: With CUCUUGGUAGCCCAGUUGGUUUAAGGCGCAAGACUUUAAUUUAUCACUACGAAAUCUUGAGAUCGGGCGUUCGACUCGCCCCCGGGGGAUUUUUUCCUCGAGCAA [C5U A13C A87G] as the variant, how does the nonsense suppression read?
Answer: ≤ 0.026

Question: With CUCUUGGUAGCCGCGUUGGUUUAAGGCGCAAGACUUUAAUUUAUCACUACGAAAUCUUGAGAUCGGGCGUUCGACUCGCCCCCGGGAGAUUUUUUCCUCGAGCAA [C5U A13G A14C] as the variant, how does the nonsense suppression read?
Answer: ≤ 0.026

Question: Which nonsense suppression does the source give for CUCUUGGUAGCCGAGUAGGUUUAAGGCGCAAGACUUUAAUUUAUCACUACGAAAUCUUGAUAUCGGGCGUUCGACUCGCCCCCGGGACAUUUUUUCCUCGAGCAA [C5U A13G U17A G61U G88C] here?
Answer: ≤ 0.026

Question: For CUCUUGGUAGCCGAGUUGGCUUAGGGCGCAAGACUUUAAUUUAUCACUACGAAAUCUUGAGAUCGGGCGUUCGACUCGCCCCCGGGAGAUUUUUUCCUCGAGCAA [C5U A13G U20C A24G], which nonsense suppression is on record?
Answer: ≤ 0.026

Question: With CUCUUGGUAGCCUAGUUGGUUUAAGGCGCAAGACUUUAAUUUAUCACUACGAAAUCUAGAGAUCUGGCGUUCGACUCGCCCCCGGGAGAUUUUUUCCUCGAGCAA [C5U A13U U58A G65U] as the variant, how does the nonsense suppression read?
Answer: ≤ 0.026
